Results published in PubChem BioAssay AID360 (National Center for Advancing Translational Sciences (NCATS), 2006).
The campaign covered roughly 48,000 compounds. About 550 (1.1%) were called active. About 4% were inconclusive and are not listed. No stated cut-off is given here; in the data, active means potency below about 15 µM; inconclusive means mostly about 16 µM to 33 µM; inactive means weaker than that. Some of the results follow.

target: Lysosomal acid glucosylceramidase (Homo sapiens) (UniProt P04062); assay: Glucocerebrosidase; settings: purified enzyme, resorufin glucoside fluorescence (screen aimed at inhibitors), 20 min;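 further: the screen sought inhibitors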
How it was run: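 Compounds titrated against 0.2 nM normal enzyme, 30 uM resorufin beta-D-glucopyranoside substrate, citrate/phosphate buffer with taurocholate and tween-20, pH 5.9. Reaction ran 20 min at room temperature; fluorescence (Ex 548/Em 600) gave AC50.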
Potency means the concentration at half of the fitted maximal effect.

Chain of UniProt P04062 (P04062 whole entry, looked up): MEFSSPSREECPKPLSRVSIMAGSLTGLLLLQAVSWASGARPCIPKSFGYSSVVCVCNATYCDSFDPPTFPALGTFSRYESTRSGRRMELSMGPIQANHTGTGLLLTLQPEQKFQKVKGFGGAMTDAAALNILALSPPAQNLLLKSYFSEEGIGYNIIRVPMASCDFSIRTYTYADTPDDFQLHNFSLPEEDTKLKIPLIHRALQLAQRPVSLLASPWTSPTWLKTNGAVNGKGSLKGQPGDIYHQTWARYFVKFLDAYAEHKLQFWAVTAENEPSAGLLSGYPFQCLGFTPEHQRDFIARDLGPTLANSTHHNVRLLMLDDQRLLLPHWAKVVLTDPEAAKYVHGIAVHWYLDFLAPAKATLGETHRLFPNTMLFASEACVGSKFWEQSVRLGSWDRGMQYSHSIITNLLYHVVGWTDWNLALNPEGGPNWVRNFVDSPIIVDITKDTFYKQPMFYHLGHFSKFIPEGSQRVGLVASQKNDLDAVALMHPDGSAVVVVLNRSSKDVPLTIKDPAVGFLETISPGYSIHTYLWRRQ

Potency, inactive:
CCOC(=O)C1C(=O)NC(N2CCc3ccccc32)=NC1c1ccccc1 (configuration not stated) > 76.9 µM, Cc1nc(CC(=O)Nc2nc(-c3ccccc3)cs2)cs1 > 76.9 µM, CCCOC(=O)c1ccc(Oc2c(-c3ccc(OCC)cc3O)n[nH]c2C)cc1 > 76.9 µM, Cc1cccc(OCc2nnc(SCC(=O)N3CCc4ccccc43)n2C)c1 > 76.9 µM, COCCn1c(SCC(=O)Nc2ncc(Cl)c(C)c2Cl)nc2ccccc21 > 76.9 µM, CN1C(=O)c2ccccc2N(C)C1c1cccs1 (configuration not stated) > 76.9 µM, O=C(Nn1cnc2ccccc2c1=O)C1CCCCC1 > 76.9 µM, O=C(CSc1nnc(-c2cccc(S(=O)(=O)N3CCCCC3)c2)o1)c1ccc[nH]1 > 76.9 µM, Cc1cc(Cl)ccc1OCC(=O)N1CC(C)CC(C)C1 (configuration not stated) > 76.9 µM, CC(=O)c1ccccc1OCCn1nnc(-c2ccc(C)cc2)n1 > 76.9 µM, O=C(CN1CC(=O)Oc2ccccc21)NCc1ccco1 > 76.9 µM, CN(C)c1[nH]c(=O)c(C#N)c2c1CCN2Cc1ccccc1, Cc1nn(Cc2ccccc2Cl)c(C)c1C(=O)Nc1nnc(C2CC2)s1 > 76.9 µM, CCOC(=O)c1cc(-c2ccc(Cl)s2)nc2c1c(C)nn2C > 76.9 µM, CCOC(=O)C1CCN(S(=O)(=O)c2ccc(OCC(=O)OC)cc2)CC1 > 76.9 µM, O=C(Nc1ccc(S(=O)(=O)N2CCc3ccccc32)cc1)c1ccco1 > 76.9 µM, COCC(=O)Nc1nnc(C2CCCCC2)s1 > 76.9 µM, CCC(=O)Nc1cccc(NC(=O)CSc2nnc(C(C)C)n2CC)c1 > 76.9 µM, COC(=O)C1(CCSC)NC(c2ccccc2OC)C2C(=O)N(C)C(=O)C21 (configuration not stated) > 76.9 µM, Cn1c(=O)c2c(ncn2CC(=O)Nc2cc(Cl)c(Cl)cc2Cl)n(C)c1=O > 76.9 µM, Cc1cc2c(c(=O)n1CC1CCCO1)C(c1ccco1)C(C#N)=C(N)O2 (configuration not stated) > 76.9 µM, COCCNc1ncnc2nc[nH]c12 > 76.9 µM, Cc1nn(C)c(C)c1CN(C)C(=O)c1cc2n(n1)C(C(F)(F)F)CC(c1cccs1)N2 (configuration not stated) > 76.9 µM, COc1ccccc1NC(=O)c1cn(C)c(=O)c2cc(OC)c(OC)cc12 > 76.9 µM, CC(C)C(NC(=O)c1ccccc1NC(=O)c1ccco1)C(=O)O (configuration not stated) > 76.9 µM, Cc1cc(C(=O)CSc2nnnn2-c2ccc(O)cc2)c(C)n1Cc1ccc2c(c1)OCO2 > 76.9 µM, COc1ccc(NC(=O)CCCN2C(=O)C3C4C=CC(C4)C3C2=O)c(OC)c1 (configuration not stated) > 76.9 µM, CCc1nc2scc(-c3ccccc3)c2c(=O)n1N > 76.9 µM, O=C(CN1CCN(S(=O)(=O)c2ccc(F)cc2)CC1)Nc1ccccc1F > 76.9 µM, CC(C)(C)NC(=O)COc1ccc(CNn2nnnc2N)cc1 > 76.9 µM, O=C1c2ccccc2C(=O)N1CCCc1nc(-c2cccnc2)no1 > 76.9 µM, COc1ccc(CN(C2CCCC2)S(=O)(=O)c2ccc(-n3cnnn3)c(OC)c2)cc1OC > 76.9 µM, CCCC(=O)Nc1ccc(NC(=O)c2ccccc2OC)cn1 > 76.9 µM, O=C(NCCN1CCN(c2ccccc2)CC1)c1cccn2c(=O)c3cc(Cl)ccc3nc12 > 76.9 µM, CCCCC(=O)Nc1ccc(N2CCN(C(=O)CC)CC2)cc1 > 76.9 µM, COCC(=O)Nc1nnc(SCC(=O)NCc2cccs2)s1 > 76.9 µM, CC(=O)c1ccc(NC(=O)N2CCN(c3cccc(Cl)c3)CC2)cc1 > 76.9 µM, O=C(CCCNS(=O)(=O)c1cccc2nsnc12)NCc1ccccc1 > 76.9 µM, O=S(=O)(Nc1ccc(N2CCOCC2)nn1)c1ccccc1 > 76.9 µM, Cc1cc(NC(=O)CSc2nnc(COc3ccccc3)o2)no1 > 76.9 µM, O=C(c1ccc2c(c1)N(Cc1ccc(F)cc1)C(=O)CS2)N1CCOCC1 > 76.9 µM, COc1ccc(C2CC3(CC(C)(C)NC(=O)N3)Oc3cc(O)ccc32)cc1 (configuration not stated) > 76.9 µM, CCOC(=O)CCCCC(=O)c1[nH]c(=O)[nH]c1Cn1ccnc1 > 76.9 µM, CC(=O)c1ccc(Nc2ncnc3c2oc2ccccc23)cc1 > 76.9 µM, Cn1c(=O)[nH]c(=O)c2c1nc(N1CCOCC1)n2CC(O)COc1ccccc1 (configuration not stated) > 76.9 µM, COC(=O)c1cc2oc(C)cc2n1CC(=O)Nc1cc(C)cc(C)c1, COc1ccc(CCNC(=O)CC2Nc3cc(C)c(C)cc3NC2=O)cc1OC (configuration not stated) > 76.9 µM, O=C(CCN1C(=O)c2ccncc2C1=O)NCc1ccc(Cl)cc1 > 76.9 µM, O=C(c1oc2ccccc2c1N1CCCCC1)N1CCCCC1 > 76.9 µM, O=C(O)c1csc(Br)c1Br > 76.9 µM, COC(=O)CSc1nnnn1-c1cccc2ccccc12 > 76.9 µM, Cc1cc(C)n(CCCNC(=O)c2ccc(S(=O)(=O)NCc3ccco3)cc2)n1 > 76.9 µM, CCOC(=O)N1CCN(C(=O)c2ccc3nc4ccc(Cl)cc4c(=O)n3c2)CC1 > 76.9 µM, CC1=CC(C)(C)C(C(=O)O)C(C(=O)O)C1 (configuration not stated) > 76.9 µM, CC(Sc1nncs1)C(=O)NCc1ccc2c(c1)OCO2 (configuration not stated) > 76.9 µM, CN1C(c2ccc(F)cc2)=CS/C1=C(\C#N)c1nnc2n1-c1ccccc1SC2 > 76.9 µM, CCCN1CCN(CCCNC(=O)C2CCCN(c3nnc(-n4cccc4)s3)C2)CC1 (configuration not stated) > 76.9 µM, COc1ccc(-c2[nH]ncc2-c2ccc(Cl)cc2)c(O)c1 > 76.9 µM, Cc1ccc(-c2nnc3c4ccccc4c(C)nn23)cc1NC(=O)CN1CCOCC1 > 76.9 µM, Cc1oc2c(CN3CCCC3)c(O)ccc2c(=O)c1Oc1ccccc1Br, Cn1c(CNc2ccc(Cl)cc2)nnc1SCc1ccccc1 > 76.9 µM, CCn1c(C(=O)OC)cc2c1ccn2-c1ccc(F)cc1 > 76.9 µM, COCCn1c(SCc2nnc(-c3ccccc3)o2)nc2sc3c(c2c1=O)CCC3 > 76.9 µM, CCN(CC)S(=O)(=O)c1cc(C)c(C)cc1Br > 76.9 µM, Cc1cc(C)c(C#N)c(N2CCCC(C(N)=O)C2)n1 (configuration not stated) > 76.9 µM, Cc1ccc(S(=O)(=O)N2CCN(C(=O)C3CCCCC3)CC2)cc1 > 76.9 µM, Cc1ccc(NS(=O)(=O)c2ccc(C)c(C(=O)N3CCN(C)CC3)c2)cc1 > 76.9 µM, COc1ccc(Cl)cc1NC(=O)N1CCN(C2CCCCC2)CC1 > 76.9 µM, COc1ccc(CCn2c(-c3ccco3)nc3nc4ccccc4nc32)cc1OC > 76.9 µM, CC(C)Nc1nc(NC(C)C)nc(N(C)C#N)n1 > 76.9 µM, O=C(NCCCN1CCN(CCCNC(=O)c2ccc(F)cc2)CC1)c1ccc(F)cc1 > 76.9 µM, O=C(O)C1Cc2ccccc2CN1C(=O)c1ccccc1 (configuration not stated) > 76.9 µM, c1ccc(CCc2nn3c(-c4ccncc4)nnc3s2)cc1 > 76.9 µM, CCOC(=O)CCc1c(C)nc2cc(-c3ccc(Cl)cc3)[nH]n2c1=O > 76.9 µM, O=C(Nc1ccc2c(c1)OCO2)c1ccc(Br)c(S(=O)(=O)N2CCCC2)c1 > 76.9 µM, Cc1cccc2cc(COC(=O)c3cccnc3)c(=O)[nH]c12 > 76.9 µM, Cc1nnc(SCc2nc3ccccc3s2)n1-c1ccccc1 > 76.9 µM, CCN1CCN(CNC(=O)c2cnccn2)CC1 > 76.9 µM, CCN(CC)S(=O)(=O)c1cc(C(=O)Nc2ccccn2)ccc1C > 76.9 µM, Cn1c(=S)n(/N=C/c2ccc3c(c2)OCO3)c2ccccc21 > 76.9 µM, O=C(CSc1ncccn1)Nn1cnnc1 > 76.9 µM, CCOCCCNC(=O)N[C@@H](Cc1ccccc1)C(=O)OC > 76.9 µM, CCOc1cc(-c2noc(-c3ccncc3)n2)cc(Br)c1OC > 15.4 µM, CCCCSc1nnc(C)c(=O)[nH]1 > 76.9 µM, c1ccc(-n2c(Sc3cnccn3)nnc2-c2cccs2)cc1 > 76.9 µM, CCOC(=O)C1CCN(c2c(NCCCN(CC)Cc3ccccc3)c(=O)c2=O)CC1 > 76.9 µM, Cn1c(=O)c2c(nc(Br)n2Cc2c(F)cccc2Cl)n(C)c1=O > 76.9 µM, O=S1(=O)c2cccc3cccc(c23)N1Cc1nnc(-c2ccccc2Br)o1 > 76.9 µM, Cc1cc2c(cc1C)-c1nnnn1C(C)(C)C2 > 76.9 µM, CN(C)C=Nc1c(Br)cc(Br)c2nonc12 > 76.9 µM, CS(=O)(=O)Nc1cccc(C(=O)CC2(O)C(=O)Nc3ccc(Br)cc32)c1 (configuration not stated) > 76.9 µM, COCCCn1nnnc1SCC(=O)Nc1nc(C)c(C)s1 > 76.9 µM
